Data published in the antibiotic and cytotoxicity screens of Wong et al. (2023).
This is one part of the list.

Test system: HepG2
Assay: cytotoxicity call (relative viability < 0.9)
Conditions: 10 µM

| SMILES | cytotoxicity call |
| --- | --- |
| COc1ccc(NC(=O)Nc2ccc3c(c2)C(=O)N([C@@H](C)CO)C[C@H](C)[C@@H](CN(C)C(=O)Nc2c(C)noc2C)OCCCC[C@H](C)O3)cc1 | inactive |
| Cc1noc(C)c1NC(=O)Nc1ccc2c(c1)C(=O)N([C@H](C)CO)C[C@@H](C)[C@H](CN(C)C(=O)Nc1ccc(F)cc1)OCCCC[C@@H](C)O2 | inactive |
| CCS(=O)(=O)N1C[C@]2(CN(Cc3cccc(c3)Cl)[C@H](CO)c3c2c2ccc(cc2n3C)OC)C1 | inactive |
| Cc1noc(C)c1S(=O)(=O)N(C)C[C@@H]1OCCCC[C@H](C)Oc2ccc(NC(=O)Nc3cccc4ccccc34)cc2C(=O)N([C@H](C)CO)C[C@@H]1C | inactive |
| CCc1nc2ccc(C(=O)NCc3ccc(OC)cc3)cn2c1N(CC)Cc1cccc(Br)c1 | inactive |
| C[C@@H]1CN([C@H](C)CO)C(=O)Cc2cc(NC(=O)C3CC3)ccc2O[C@@H]1CN(C)S(=O)(=O)c1ccccc1 | inactive |
| C[C@H](CO)N1C[C@H](C)[C@@H](CN(C)S(C)(=O)=O)OCCCC[C@H](C)Oc2ccc(NC(=O)CCCN(C)C)cc2C1=O | inactive |
| C[C@@H]1CN([C@H](C)CO)C(=O)c2cc(NS(=O)(=O)c3ccc(Cl)cc3)ccc2O[C@@H]1CN(C)Cc1ccc(Cl)c(Cl)c1 | active |
| COc1ccc(CN(C)C[C@H]2Oc3ccc(NC(=O)Nc4cccc5ccccc45)cc3C(=O)N([C@@H](C)CO)C[C@H]2C)cc1 | inactive |

Test system: S. aureus RN4220
Assay: growth inhibition call (relative growth <= 0.2)
Conditions: 50 µM

| SMILES | growth inhibition call |
| --- | --- |
| CCC[C@@H](O)C#Cc1cnc2c(c1)C(=O)N([C@H](C)CO)C[C@H](C)[C@H](CN(C)C(=O)NC1CCCCC1)O2 | inactive |
| N#CCC1CCNCC1 | inactive |
| C[C@@H]1CN([C@H](C)CO)C(=O)c2cc(NC(=O)Cc3ccccc3)ccc2O[C@@H]1CN(C)S(C)(=O)=O | inactive |
| COc1ccc(NC(=O)Nc2cccc3c2O[C@@H](CN(C)Cc2ccc(C(=O)Nc4ccccc4N)cc2)[C@@H](C)CN([C@H](C)CO)C3=O)cc1 | inactive |
| COc1ccc(-c2cnc3c(c2)C(=O)N([C@@H](C)CO)C[C@H](C)[C@H](CN(C)C(=O)Cc2cccnc2)O3)cc1 | inactive |
| Cc1noc(C)c1S(=O)(=O)N(C)C[C@@H]1OCCCC[C@H](C)Oc2ccc(NS(C)(=O)=O)cc2C(=O)N([C@H](C)CO)C[C@@H]1C | inactive |
| CCCCC/C=C\C/C=C\C/C=C\C/C=C\CCCC(=O)O | inactive |
| C[C@@H]1CN([C@@H](C)CO)C(=O)c2cccc(NC(=O)Nc3cccc4ccccc34)c2O[C@H]1CN(C)S(=O)(=O)c1ccc(Cl)cc1 | inactive |
| C[C@@H]1CN([C@@H](C)CO)C(=O)c2cccc(NC(=O)c3ccc(-c4nccs4)cc3)c2O[C@H]1CN(C)C(=O)Nc1ccc(C(F)(F)F)cc1 | inactive |
| CCCN1C[C@H](C(=O)O)CCC1=O | inactive |
| CC(C)(C)[S@@+]([O-])N1Cc2cc(C(=O)O)nc(-c3ccc(Br)cc3)c2[C@H]1CCO[Si](C)(C)C(C)(C)C | active |
| S=C=Nc1ccc(N=C=S)cc1 | inactive |
| COc1ccc([Si](C)(C)[C@@H]2[C@@H](CCn3cc(CCO)nn3)O[C@]3(C(=O)N(Cc4ccc(N5C(=O)c6cccc7cccc5c67)cc4)c4ccccc43)[C@H]2C)cc1 | inactive |
| COc1ccc(NC(=O)Nc2ccc3c(c2)CC(=O)N([C@H](C)CO)C[C@@H](C)[C@@H](CN(C)S(=O)(=O)c2cn(C)cn2)O3)cc1 | inactive |
| C[C@@H]1CCCCO[C@@H](CN(C)C(=O)Nc2ccc(C(F)(F)F)cc2)[C@H](C)CN([C@@H](C)CO)C(=O)c2cc(NC(=O)c3ccncc3)ccc2O1 | inactive |
| C[C@@H]1CCCCO[C@@H](CN(C)C(=O)Nc2ccccc2)[C@H](C)CN([C@H](C)CO)C(=O)c2cc(NC(=O)Nc3ccc(C(F)(F)F)cc3)ccc2O1 | inactive |
| CCCCC(CC)COC(=O)c1ccccc1O (centres undefined) | inactive |
| C[C@@H]1CN([C@H](C)CO)C(=O)Cc2cc(NC(=O)Cc3ccccc3)ccc2O[C@H]1CN(C)Cc1ccc(Cl)c(Cl)c1 | inactive |
| CC(C)NC(=O)N(C)C[C@@H]1Oc2ccc(NS(=O)(=O)c3ccc(F)cc3)cc2C(=O)N([C@@H](C)CO)C[C@H]1C | inactive |
| Cc1noc(C)c1S(=O)(=O)Nc1ccc2c(c1)C(=O)N([C@@H](C)CO)C[C@H](C)[C@@H](CN(C)C(=O)Nc1ccccc1)OCCCC[C@H](C)O2 | inactive |

| SMILES | growth inhibition call |
| --- | --- |
| C[C@@H]1CN([C@@H](C)CO)C(=O)Cc2cc(NC(=O)CCN3CCOCC3)ccc2O[C@@H]1CN(C)Cc1ccc2c(c1)OCO2 | inactive |
| CC[C@@H](CN)Cc1ccccc1 | inactive |
| C[C@@H]1CN([C@H](C)CO)C(=O)c2cc(NC(=O)c3ccncc3)ccc2O[C@@H](C)CCCCO[C@H]1CN(C)S(=O)(=O)c1ccc(Cl)cc1 | inactive |
| C[C@@H]1CCCCO[C@@H](CN(C)C(=O)Nc2ccccc2)[C@H](C)CN([C@@H](C)CO)C(=O)c2cc(NC(=O)Nc3cccc4ccccc34)ccc2O1 | inactive |
| NC(=O)c1ccnc(Cl)c1 | inactive |
| C=CCNC(N)=S | inactive |
| COC1C=COC2(C)Oc3c(C)c(O)c4c(O)c(c(C=NN5CCN(C6CCCC6)CC5)c(O)c4c3C2=O)NC(=O)C(C)=CC=CC(C)C(O)C(C)C(O)C(C)C(OC(C)=O)C1C (centres undefined) | inactive |
| COc1ccc(CN(C)C[C@@H]2Oc3ccc(NC(=O)C4CC4)cc3CC(=O)N([C@@H](C)CO)C[C@@H]2C)cc1 | inactive |
| C[C@H](CO)N1C[C@H](C)[C@H](CN(C)S(=O)(=O)c2ccccc2)Oc2ncc(-c3cccc(F)c3)cc2C1=O | inactive |
| Cc1ccc(S(=O)(=O)Nc2ccc3c(c2)C(=O)N([C@@H](C)CO)C[C@@H](C)[C@H](CN(C)S(C)(=O)=O)O3)cc1 | inactive |
| CN1CCN(C(=O)C[C@H]2C[C@@H]3c4cc(NC(=O)c5ccc6c(c5)OCO6)ccc4O[C@@H]3[C@@H](CO)O2)CC1 | inactive |
| COc1ccc(NC(=O)Nc2ccc3c(c2)C(=O)N([C@@H](C)CO)C[C@H](C)[C@@H](CN(C)C(=O)Nc2c(C)noc2C)OCCCC[C@H](C)O3)cc1 | inactive |
| Cc1noc(C)c1NC(=O)Nc1ccc2c(c1)C(=O)N([C@H](C)CO)C[C@@H](C)[C@H](CN(C)C(=O)Nc1ccc(F)cc1)OCCCC[C@@H](C)O2 | inactive |
| CCS(=O)(=O)N1C[C@]2(CN(Cc3cccc(c3)Cl)[C@H](CO)c3c2c2ccc(cc2n3C)OC)C1 | inactive |
| Cc1noc(C)c1S(=O)(=O)N(C)C[C@@H]1OCCCC[C@H](C)Oc2ccc(NC(=O)Nc3cccc4ccccc34)cc2C(=O)N([C@H](C)CO)C[C@@H]1C | inactive |
| CCc1nc2ccc(C(=O)NCc3ccc(OC)cc3)cn2c1N(CC)Cc1cccc(Br)c1 | inactive |
| C[C@@H]1CN([C@H](C)CO)C(=O)Cc2cc(NC(=O)C3CC3)ccc2O[C@@H]1CN(C)S(=O)(=O)c1ccccc1 | inactive |
| C[C@H](CO)N1C[C@H](C)[C@@H](CN(C)S(C)(=O)=O)OCCCC[C@H](C)Oc2ccc(NC(=O)CCCN(C)C)cc2C1=O | inactive |
| C[C@@H]1CN([C@H](C)CO)C(=O)c2cc(NS(=O)(=O)c3ccc(Cl)cc3)ccc2O[C@@H]1CN(C)Cc1ccc(Cl)c(Cl)c1 | inactive |
| COc1ccc(CN(C)C[C@H]2Oc3ccc(NC(=O)Nc4cccc5ccccc45)cc3C(=O)N([C@@H](C)CO)C[C@H]2C)cc1 | inactive |
